Among all 350,000 compounds or so, about 31,000 (8.9%) were called active. This list was built around the results that the source calls inconclusive (neither active nor inactive); the mix of calls is not that of the screen. The call rests on the fitted dose curve; in most records, active means well fitted inhibition curve with a large enough effect; inconclusive means small, poorly fitted or top-dose-only effect; inactive means no such curve, though single readings can be large or run the other way. A potency beside an inconclusive call is a rough fit, not a confirmed value.
These molecules were tested against Histone-lysine N-methyltransferase EHMT2 (Homo sapiens) (UniProt Q96KQ7) (assay: qHTS Assay for Inhibitors of Histone Lysine Methyltransferase G9a). Settings: G9a H3K9 monomethylation, AlphaScreen, 2 h; activity, negative = inhibition: at 59 µM (top of the series) unless noted.
Sequence of UniProt Q96KQ7 (Q96KQ7 whole entry, looked up): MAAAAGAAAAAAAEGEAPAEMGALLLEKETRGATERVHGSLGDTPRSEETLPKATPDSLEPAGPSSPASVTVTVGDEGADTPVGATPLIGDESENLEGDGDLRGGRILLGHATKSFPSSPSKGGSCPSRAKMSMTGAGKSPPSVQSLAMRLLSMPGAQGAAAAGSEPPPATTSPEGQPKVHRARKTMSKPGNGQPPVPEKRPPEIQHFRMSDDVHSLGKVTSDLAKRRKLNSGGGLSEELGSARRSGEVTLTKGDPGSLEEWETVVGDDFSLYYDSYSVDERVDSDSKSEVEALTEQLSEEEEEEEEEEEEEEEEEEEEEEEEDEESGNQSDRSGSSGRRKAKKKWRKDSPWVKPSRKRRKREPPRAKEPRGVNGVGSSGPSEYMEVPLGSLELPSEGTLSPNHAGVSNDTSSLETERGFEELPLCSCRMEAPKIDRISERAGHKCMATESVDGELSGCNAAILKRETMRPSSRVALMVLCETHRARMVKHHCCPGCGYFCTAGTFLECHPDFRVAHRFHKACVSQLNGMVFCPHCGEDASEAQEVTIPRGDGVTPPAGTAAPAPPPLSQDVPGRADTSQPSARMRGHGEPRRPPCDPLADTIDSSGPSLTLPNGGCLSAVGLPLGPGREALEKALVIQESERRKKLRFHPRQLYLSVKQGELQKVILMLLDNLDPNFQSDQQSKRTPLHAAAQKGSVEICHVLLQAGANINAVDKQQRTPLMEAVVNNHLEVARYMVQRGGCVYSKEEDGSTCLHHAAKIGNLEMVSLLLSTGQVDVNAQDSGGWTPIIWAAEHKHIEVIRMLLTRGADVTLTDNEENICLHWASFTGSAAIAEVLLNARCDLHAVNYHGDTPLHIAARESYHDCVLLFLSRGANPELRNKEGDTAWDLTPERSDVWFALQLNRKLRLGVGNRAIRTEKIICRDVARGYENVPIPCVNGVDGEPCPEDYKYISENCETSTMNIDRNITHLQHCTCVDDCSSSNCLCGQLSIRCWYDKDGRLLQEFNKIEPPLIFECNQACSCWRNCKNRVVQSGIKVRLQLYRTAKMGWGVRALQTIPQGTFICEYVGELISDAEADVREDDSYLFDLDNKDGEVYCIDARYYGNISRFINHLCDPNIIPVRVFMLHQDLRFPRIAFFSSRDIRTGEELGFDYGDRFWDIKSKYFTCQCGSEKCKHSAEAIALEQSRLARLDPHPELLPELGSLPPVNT
How it was run: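 Signal arises when biotinylated H3K9 peptide, once monomethylated, bridges streptavidin donor and antibody-captured acceptor beads. Enzyme at 20 nM was preincubated 15 min with test compounds; peptide 500 nM and SAM 20 uM then reacted for 2 h.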
`O=S(=O)(Nc1nc2n(n1)C(c1ccc(F)cc1)C=C(c1ccc(Cl)cc1)N2)c1ccccc1` (stereo not given) was tested, and the Potency was inconclusive: 31.6 µM [inhibitor, partial curve, poor fit]. For `Clc1ccc(/C=N/Nc2nc(Cl)nc3ccccc23)cc1`, the activity, negative = inhibition was inactive: 65.6% [at 12.7 µM]. With `CCOC(=O)c1cc(OC(=O)c2cccc([N+](=O)[O-])c2)n(-c2ccccc2)n1` the Potency was inconclusive: 22.4 µM [inhibitor, single point]. In the case of `CC1=C(C#N)C(c2ccoc2)C(C(=O)OCc2ccccc2)=C(N)S1` (stereo not given), the Potency is reported as inconclusive: 44.7 µM [inhibitor, partial curve]. For `Cc1c(C)n(C(=O)CN2CCC(C)CC2)c2ccccc12`, the Potency was inconclusive: 70.8 µM [inhibitor, single point]. For `Cc1nc(N2CCN(c3ccccc3O)CC2)c2c(-c3ccccc3)csc2n1`, the Potency was inconclusive: 70.8 µM [inhibitor, partial curve, poor fit]. `COc1ccc(NS(=O)(=O)c2ccc3c(c2)CC(C)N3C(=O)C2CCC2)cc1OC` (stereo not given) was tested, and the “activity, negative = inhibition” value was inactive: -29.6%. For `O=C(NCCN1CCCCC1)Nc1ccccc1F`, the Potency was inconclusive: 44.7 µM [inhibitor, partial curve, poor fit]. For `CN(C)N=Nc1nc2c(c(=O)n(C)c(=O)n2C)n1C`, the Potency was inconclusive: 89.1 µM [inhibitor, partial curve, poor fit]. In the case of `COc1cccc(/C=C2\SC(=S)N(N3CCOCC3)C2=O)c1OC`, the Potency is reported as inconclusive: 39.8 µM [inhibitor, single point]. For `O=C(CSc1ccccn1)N/N=C/c1ccccc1[N+](=O)[O-]`, the “activity, negative = inhibition” value was inactive: -37.7%. With `COc1ccccc1/C=N/NC(=O)c1cccc2ccccc12` the “activity, negative = inhibition” value was inactive: 22.5% [at 102 µM]. `CCOc1ccccc1NC(=O)C1CCCN(S(=O)(=O)c2cccs2)C1` (stereo not given) was tested, and the “activity, negative = inhibition” value was inactive: -2.49%. For `CCOC(=O)N1CCN(C(=O)Cc2ccc(-n3c(=S)[nH]c4ccccc4c3=O)cc2)CC1`, the Potency was active: 44.7 µM. `COc1ccccc1C(=O)NCCC(=O)NC1CCC(C)CC1` (stereo not given) was tested, and the Potency was inconclusive: 4.47 µM [inhibitor, single point]. With `O=C(CCCN1C(=O)/C(=C\c2ccccc2)SC1=S)Nc1ccccc1O` the Potency was inconclusive: 79.4 µM [inhibitor, partial curve, poor fit]. In the case of `CNC[C@@H](C)NC[C@@H](Cc1ccccc1)NCCc1ccccc1`, the Potency is reported as inconclusive: 89.1 µM [inhibitor, single point]. In the case of `COc1ccc(NC(=O)c2sc3nc4n(c(=O)c3c2C)CCC4)c(OC)c1`, the “activity, negative = inhibition” value is reported as inactive: -34.1%. For `CC(=O)N(c1nc(CCl)cs1)c1ccc(C)cc1C`, the Potency was inconclusive: 39.8 µM [inhibitor, partial curve, poor fit]. For `CC(C)NC(=O)COc1ccc(/C=N/NS(=O)(=O)c2ccccc2)cc1`, the Potency was inconclusive: 89.1 µM [inhibitor, partial curve, poor fit]. For `CCc1ccc(OCCCC(=O)NCc2ccccc2)cc1`, the “activity, negative = inhibition” value was inactive: 1.61% [at 102 µM]. `C=C1c2cccc(O)c2C(O)=C2C(=O)[C@]3(O)C(O)=C(C(N)=O)C(=O)[C@@H](N(C)C)[C@@H]3[C@@H](O)[C@H]12` was tested, and the “activity, negative = inhibition” value was inactive: -160%. `O=C(Nc1ccsc1C(=O)O)c1cccc(Oc2ccccc2)c1` was tested, and the Potency was inconclusive: 89.1 µM [inhibitor, single point]. With `O=C(COC(=O)c1ccccc1O)Nc1ccc(N2CCOCC2)cc1` the Potency was inconclusive: 39.8 µM [inhibitor, single point]. With `CCCNC(=O)NC(=O)CSc1ccc(C)cc1C` the “activity, negative = inhibition” value was inactive: 12.9% [at 102 µM]. `CCOC(=O)c1cnc(SCc2nc(N)nc(Nc3ccc(C)cc3)n2)nc1N` was tested, and the Potency was active: 17.8 µM. With `NC(=O)C(c1ccc(Br)cc1)c1ccc(C(=O)c2ccccc2)cc1` (stereo not given) the Potency was inconclusive: 2.51 µM [inhibitor, partial curve, poor fit]. `Cc1nc(-c2cccc(C(F)(F)F)c2)sc1C(=O)O` was tested, and the Potency was active: 56.2 µM. For `CN(C)c1ccc(NC(=O)c2cn(-c3ccccc3)nc2-c2cccs2)cc1`, the Potency was active: 10 µM. `COC(=O)CCc1c(C)c(C(=O)c2cc(F)c(F)c(F)c2F)c2ccccn12` was tested, and the Potency was inconclusive: 39.8 µM [inhibitor, partial curve]. In the case of `O=[N+]([O-])c1ccccc1S(=O)(=O)Oc1ccccc1/C=N/n1cnnc1`, the Potency is reported as inconclusive: 4.47 µM [inhibitor, single point]. For `COc1cccc(/C=N/n2nnnc2N)c1O`, the Potency was inconclusive: 56.2 µM [inhibitor, partial curve]. With `CCC(C)C(NC(=O)C1CCC(C)CC1)C(=O)Nc1cc(OC)ccc1OC` (stereo not given) the Potency was inconclusive: 50.1 µM [inhibitor, partial curve, poor fit]. For `Cc1ccc(N=C2C(=O)Nc3c(C)cccc32)cc1`, the “activity, negative = inhibition” value was inactive: 14.1% [at 102 µM]. In the case of `Cc1ccc(CSCCNC(=O)CN(c2cc(C)ccc2C)S(C)(=O)=O)cc1`, the activity, negative = inhibition is reported as inactive: 43.5% [at 12.7 µM]. `O=C(c1cccc(F)c1)N1CCC2(CC1)CN(c1ccccc1)C2` was tested, and the activity, negative = inhibition was inactive: 4.58% [at 12.7 µM]. With `Cc1cc2ccccc2n1CCNC(=O)COc1ccc2ccccc2c1` the Potency was inconclusive: 31.6 µM [inhibitor, single point]. For `O=C(NNc1cc(N2CCOCC2)nc(N2CCOCC2)n1)C12CC3CC(CC(C3)C1)C2`, the Potency was inconclusive: 20 µM [inhibitor, partial curve, poor fit]. `Cc1ccc(NCCC#N)cc1C` was tested, and the Potency was inconclusive: 12.6 µM [inhibitor, single point]. For `CNC(=S)N/N=C(\C)c1ccc(-n2ccnc2)cc1`, the Potency was inconclusive: 44.7 µM [inhibitor, partial curve]. In the case of `CC/C(Cc1ccccc1)=N\NC(=O)c1cc([N+](=O)[O-])cc([N+](=O)[O-])c1`, the Potency is reported as inconclusive: 89.1 µM [inhibitor, single point]. In the case of `Cc1ccc(/C=N/n2c(C)nnc2C)cc1`, the “activity, negative = inhibition” value is reported as inactive: 6.96% [at 102 µM]. `COc1ccc(OC)c(Nc2ncnc3c2cnn3-c2cccc(C)c2)c1` was tested, and the “activity, negative = inhibition” value was inactive: -6.96%. In the case of `O=C(CSc1ncn(-c2ccccc2)n1)Nc1ccc2c(c1)OCO2`, the Potency is reported as inconclusive: 89.1 µM [inhibitor, single point]. For `CC(OC(=O)Cc1c[nH]c2ccccc12)C(=O)Nc1ccccc1[N+](=O)[O-]` (stereo not given), the Potency was active: 31.6 µM. With `Cc1cc(N(CCO)CCO)ccc1C(c1ccc(N(CCO)CCO)cc1C)c1ccccc1Cl` the Potency was active: 7.94 µM. `CCOC(=O)c1c(CSc2ccccc2)n(C)c2ccc(O)c(CN3CCOCC3)c12` was tested, and the Potency was active: 39.8 µM. With `N#CC1=C(N)Oc2n[nH]c(-c3cccs3)c2C1C1C=CCCC1` (stereo not given) the Potency was inconclusive: 0.562 µM [inhibitor, partial curve, poor fit]. In the case of `Cc1ccccc1C(=O)Nc1nnc(S(=O)(=O)N2CCc3ccccc32)s1`, the “activity, negative = inhibition” value is reported as inactive: -24%. With `COc1ccccc1NC(=O)CN1CCN(CC(=O)Nc2ccc(F)cc2)CC1` the activity, negative = inhibition was inconclusive: -63.2% [inhibitor]. With `CCOc1ccc2[nH]c3c(N4CCN(C(=O)c5ccco5)CC4)ncnc3c2c1` the Potency was inconclusive: 50.1 µM [inhibitor, partial curve, poor fit]. With `CCC1S/C(=C(\C#N)C(=O)NCc2ccco2)N(c2ccc(F)cc2)C1=O` (stereo not given) the Potency was inconclusive: 79.4 µM [inhibitor, partial curve]. In the case of `CN(C)c1ccc(C(CC(=O)O)C(=O)O)cc1` (stereo not given), the Potency is reported as active: 56.2 µM. In the case of `CSc1nc(NCC(C)C)c2c3c(sc2n1)CN(C)CC3`, the “activity, negative = inhibition” value is reported as inactive: -38.7%. With `COc1ccccc1NC(=S)N/N=C1\CC(C)(C)Oc2ccc(O)cc21` the Potency was inconclusive: 56.2 µM [inhibitor, partial curve, poor fit]. With `S=c1[nH]nc(CCSCc2ccccc2)n1-c1ccccc1` the Potency was active: 3.55 µM. In the case of `CCC(=O)C1CCCN(C(=O)CCc2nnc(-c3ccc(C(C)=O)s3)o2)C1` (stereo not given), the “activity, negative = inhibition” value is reported as inactive: -2.81% [at 102 µM]. For `CCC(C)(C)c1ccc(OCCCC[n+]2cccc(C)c2)c(C(C)(C)CC)c1`, the Potency was inconclusive: 89.1 µM [inhibitor, partial curve, poor fit]. For `CCCCOc1ccc(-c2ncc(C(=O)OCC)c(N)n2)cc1`, the activity, negative = inhibition was inactive: 6.88% [at 12.7 µM]. `COc1ccccc1N1CCN(C2CCCN(Cc3ccccc3OCCO)C2)CC1` (stereo not given) was tested, and the Potency was active: 79.4 µM. For `S=C(NCCN1CCOCC1)Nc1ccc(Cl)c(Cl)c1`, the Potency was inconclusive: 12.6 µM [inhibitor, partial curve, poor fit]. `O=C(Nc1nnc(C2CC2)s1)c1cccc(S(=O)(=O)N2CC(c3ccccc3)CC2=O)c1` (stereo not given) was tested, and the Potency was inconclusive: 89.1 µM [inhibitor, single point]. For `CCNC(=O)COn1c(SCC(=O)NCC)nc2ccccc2c1=O`, the Potency was inconclusive: 79.4 µM [inhibitor, single point]. `COc1ccc(/C=N/NC(=O)CNC(=O)c2ccc3c(c2)OCCO3)c(C(=O)O)c1OC` was tested, and the “activity, negative = inhibition” value was inactive: 2.39%. With `O=C(NCc1ccncc1)c1nnc(Cc2c(F)cccc2Cl)o1` the Potency was inconclusive: 56.2 µM [inhibitor, partial curve, poor fit]. `N#CC1(NC(=O)COC(=O)Cc2n[nH]c(=O)c3ccccc23)CCCCC1` was tested, and the Potency was inconclusive: 79.4 µM [inhibitor, partial curve, poor fit]. With `Cc1c(NS(=O)(=O)c2cc(C(=O)NCc3cccnc3)cc(Cl)c2Cl)c(=O)n(-c2ccccc2)n1C` the activity, negative = inhibition was inactive: 6.87% [at 0.501 µM]. For `O=S(=O)(c1cccs1)N1CCN(CC(O)COC2CCCc3ccccc32)CC1` (stereo not given), the Potency was active: 17.8 µM. In the case of `O=C(Nc1ccnn1C1CCN(Cc2ccn[nH]2)CC1)c1ccccc1`, the Potency is reported as inconclusive: 89.1 µM [inhibitor, single point]. `Cc1ccc(S(=O)(=O)N2C(=O)[C@@H]3Cc4ccccc4CN3C2=O)cc1` was tested, and the Potency was active: 39.8 µM.
Further: nearly all actives have a fitted effect of over 75% in size.
On the % scale 0 is the no-effect control and ±100 the full control effect; potency means the concentration at half of the fitted maximal effect; tags describe the fitted curve by direction and shape.
